# The campaign covered roughly 150,000 compounds. About 540 (0.36%) showed an effect of 50% or more. The list shows a part of the results.
# Test system: Plasmodium falciparum
# Experiment: Primary screen in NF54 nanoGlo assay, in single point, at 2uM, 72h; a lower Z score goes with more inhibition
# Assay type: functional, Erythrocyte
# Conditions: timepoint 72 hour
SMILES,% Inhibition,Z score
Cc1ccc[n+](-c2nc3ccccc3nc2[N-]S(=O)(=O)c2ccc(Cl)cc2)c1,28%,-3.17
O=C(O)C1C2CCCC2CN1C(=O)c1cccc(-c2ccoc2)c1 (stereo unspecified),-12%,2.34
CN(C)c1ccc(C(=O)N2CCN(c3nc4nccc(-c5cccc(C(F)(F)F)c5)n4n3)CC2)cc1,2%,-0.24
Cc1cc(N[C@H]2CCNC2=O)nn1-c1ccc(Cl)cc1Cl,3%,-0.32
CC1(C2CC2)CCN(Cc2cc(C(=O)O)co2)CC1,-5%,0.64
CC(C)Oc1ccc(-c2nc(C(=O)O[C@H](C#N)C3CC3)cs2)cc1,-9%,1.08
COCC(=O)NC1(CC2CC2)CCN(S(=O)(=O)c2ccccc2)CC1,-8%,1.59
C[C@H](NC(=O)CN1C(=O)CCn2nc(-c3ccc(Cl)cc3)cc21)c1ccccc1,-14%,1.76
Cc1ccc2c(c1)C(c1ccccc1)=Nc1ccc(C)cc1C(c1ccccc1)=N2,7%,-0.71
CCn1cnnc1[C@H](C)NC(=O)Cn1cc(C)cn1,1%,-0.27
[O-][S+]1CCN(c2ccc3nccnc3n2)CC1,3%,-0.37
COC[C@@H]1[C@H](NC(=O)c2cc(C)c(-c3ccccc3)s2)[C@H]2CCO[C@H]21,-6%,0.99
CN(C)C(=O)CN1C(=O)[C@@H]2CC[C@H]1CN(C(=O)c1ccc3ccccc3c1)C2,-11%,1.72
Cc1nc(O)nc(C)c1CCC(=O)N1CC[C@@](O)(C2CCOCC2)[C@H](C)C1,-3%,0.46
CCn1cc(-c2nc(CC(=O)N3CCN(c4ccccc4)CC3)cs2)c2cccnc21,-7%,1.29
Cc1cc(C)c(C#N)c(N2CC[C@@]3(CCCN(CC4CCC4)C3=O)C2)n1,-6%,1.28
Cc1cc(-c2nc(-c3ccccn3)no2)on1,-7%,1.17
O=C(NC1CCCCC1)C1CCCCC1,-11%,1.46
CC[C@@H](C(=O)N(C)Cc1cc(C2CC2)on1)n1cccn1,4%,-0.81
CC(C)(C)c1ccc(S(=O)(=O)NCC(F)(F)CO)s1,-12%,1.57
O=C(C[C@@H]1CCN2C[C@@H]1/C=C\COc1ccccc1CNCC2=O)NC1CC1,-3%,0.53

SMILES,% Inhibition,Z score
Cc1cccc(C(=O)N2CCC(c3ccn4ncc(C(=O)N5CCOCC5)c4c3)CC2)c1,-8%,1.36
O=c1ccn(Cc2cc(C3CC3)no2)c2c(OC(F)(F)F)cccc12,-3%,0.29
Cc1noc([C@@H]2CCN(C(=O)CCc3c(C)noc3C)CCN2C(=O)C2CCCC2)n1,-17%,2.22
CC(C)[C@@H]1N(C(=O)NCc2ccc(Cn3ccnc3)cc2)CC12CC=CC2,-10%,1.34
CCOC(CCNC(=O)N1CCCC2CN(C)CCC21)C(C)C (stereo unspecified),-9%,1.18
Cc1cccn2cc(CN3C[C@H](O)[C@@H](F)C3)nc12,-6%,1.23
Cc1cc(CN2CCC[C@@H]2C(F)F)n(C)n1,-3%,0.35
Cc1nc2sc(C(=O)Nc3cnc4ccccc4c3)c(N)c2c(C)c1C,-11%,1.5
O=C(CCC(F)(F)F)N1CCN(C(=O)c2ccc3[nH]cnc3c2)CC1,-1%,0.07
CC(=O)N[C@@H](C)C(=O)N(Cc1ccccc1)CC(F)F,-2%,0.21
O=C(c1cc(-c2ccc(F)cc2)c[nH]1)N1CCC(N2CC(=O)N(C3CC3)C2=O)CC1,2%,-0.18
O[C@H]1[C@H](n2cc(-c3ccsc3)nn2)c2ccccc2C12CCNCC2,0%,0.02
CCC(CC)NS(=O)(=O)c1cc(OC)ccc1OC,-15%,2.31
Cc1ccc(CCC(=O)NCc2ccc(N3CCS(=O)(=O)CC3)cc2)cc1,-7%,1.01
Cc1cccnc1CNC(=O)[C@H]1CC(=O)N(CCN2CCOCC2)C1,2%,-0.25
O=C(Nc1ccccc1)N1CCC(c2nnc(-c3ccco3)o2)CC1,11%,-1.45
CC1=C(C(=O)NCCC(F)(F)F)Cn2nnnc2N1C,0%,0.01
Cc1cccc2oc(C(=O)N3CC[C@@]4(O)C[C@H]4C3)cc12,-12%,1.48
CN(C)C[C@]12CN(C(=O)COc3ccccc3)C[C@H]1CN(C(=O)c1ccccc1)C2,-15%,2.07
O=C(c1cc2ncc(CCO)cn2n1)N1C[C@H]2CCC[C@@H]1C2,-5%,0.94
CC(C)c1ocnc1C(=O)N1CC(=O)Nc2cnccc21,1%,-0.16

SMILES,% Inhibition,Z score
COc1cccc(-c2cc(C(=O)NCc3cncc(N4CCCC4=O)c3)n(C)n2)c1,-6%,1.22
CC(C)CN(CCC(=O)NCc1ccccc1)c1nc(-c2ccccc2)nc2cc(Cl)ccc12,5%,-0.82
Cc1oc(-c2ccccc2)c(C(=O)NCCNS(C)(=O)=O)c1C,-8%,1.09
Cc1nn(C)c(C)c1CCC(=O)N(C)c1cc(C#N)ccn1,-11%,1.59
Cc1c(NC(=O)N(C)c2ccccc2)c(=O)n(-c2ccccc2)n1C,-2%,0.21
CCC(=O)Nc1ccc2c(c1)cc(C(=O)Nc1ccc(C(F)(F)F)cc1)n2Cc1ccc(C(C)(C)C)cc1,2%,-0.26
CCc1noc(C)c1C(=O)N1CCN(C)C[C@@H]1C,-14%,2.16
COCCc1noc(-c2ccccc2OC2CN(C(=O)CCn3nc(C)cc3C)C2)n1,11%,-1.26
Cc1cc(N)n(CC(=O)N2CCn3cccc3C2)n1,-5%,0.75
O=C(NC[C@H]1CCCN(Cc2ccco2)C1)c1ccncc1Cl,8%,-1.03
CC(=O)N1CCCC[C@@H]1CCS(=O)(=O)N1CCN(C)c2cc(Cl)ccc21,-9%,1.72
NC(=O)CNC(=O)CCc1cc(Cl)ccc1Br,3%,-0.37
O=C(NCc1cc2n(n1)CCCO2)c1cnn(C2CCC2)c1,-5%,0.63
Cc1nc(N2CCCC2)n(Cc2ccncc2)c(=O)c1C,11%,-1.06
CCOc1ccccc1C(=O)N1CC2(C[C@H](CC(=O)NCc3ccncc3)CO2)C1,-1%,0.1
Cc1nc(-c2ccc(S(=O)(=O)Cl)cc2)c(C)o1,-17%,2.34
COc1ccc(N2CCN(c3ncccc3-c3nc(-c4ccccc4)no3)CC2)cc1,17%,-1.95
CCOc1cc2c(cc1CNCc1cccc(CO)c1)CCC2,-21%,2.13
CCCCN1CCN(C(=O)NCc2noc(CCOC)n2)CC1,0%,0.05
CCCn1cc(CNS(=O)(=O)c2ccsc2C#N)nn1,-6%,0.69
Cc1nnc(NC2CCCCC2)n(C)c1=O,-2%,0.24

SMILES,% Inhibition,Z score
CCN1CCN(CCC(=O)N[C@H]2CCc3ccccc32)CC1,-15%,2.3
Cc1ncc2c(c1-c1noc(Cn3nc4ccccc4n3)n1)CCNC2,-9%,1.52
O=C(Nc1cccs1)O[C@H]1COCCN(c2nc3ccccc3o2)C1,-12%,1.5
O=S(=O)(c1ccccc1)N1CCN(S(=O)(=O)c2ccc(Cl)cc2)C1,38%,-4.86
O=C(Nc1ccc2c(c1)OCCO2)c1ccc2nccnc2n1,-45%,5.31
O=C(NC1CCC1)c1ccc(S(=O)(=O)NCc2ccccn2)cc1,-2%,0.3
COc1ccc2oc(CNC(=O)c3cc4c(n(C)c3=O)CCCC4)nc2c1,-13%,2.15
CC[C@@H]1OC2(CCN(Cc3ccc(Br)cc3Cl)CC2)NC1=O,-5%,0.83
O=C(NCCc1ccsc1)c1ccncc1,9%,-1.37
Cc1cc(C)nc(CN(C)c2nccc(N3CCC[C@H](O)C3)n2)c1,-10%,1.65
Cc1sc(NC(=O)c2cn(Cc3cccnc3)nn2)nc1-c1ccc(F)cc1,-3%,0.37
Cc1noc(COC2CCN(C(=O)c3n[nH]c4ccccc34)CC2)n1,0%,0.04
O=C(NCC1(COc2ccccc2)CC1)[C@H]1C[C@H]2C=C[C@@H]1C2,-17%,1.98
O=C(Cn1cc(C(=O)N2CCc3ccncc32)cn1)NC1CCCCC1,3%,-0.47
Cc1ccncc1C(=O)N[C@@H](C)c1cnn(-c2ccccc2C)c1C,9%,-1.19
CN(C)[C@H]1[C@@H]2CC[C@H]1CN(Cc1ccccc1Cn1cccn1)C2,-8%,1.45
O=C(CC1CC1)N(Cc1c(F)cccc1F)C1CC1,1%,-0.16
CC(C)c1ccc([C@@]2(C(F)(F)F)Cc3c(C#N)cccc3O2)cc1,-27%,3.16
CN(C)c1ccc(CNS(=O)(=O)c2ccc(-c3cc(C(F)(F)F)on3)o2)cc1,-13%,2.18
CC[C@@H](C(=O)NCC1(COc2ccccc2)CC1)n1cccn1,1%,-0.06

# From ChEMBL document CHEMBL4888484, “Replenishing the malaria drug discovery pipeline: Screening and hit evaluation of the MMV Hit Generation Library 1 (HGL1) against asexual blood stage Plasmodium falciparum ,using a nano luciferase reporter read-out” (2022)
